Sequences with one replicate were seen in a single cluster, so their values are uncertain.
Tested on: ATP
Assay: switch fluorescence ratio, 500 uM ATP over buffer (Cy3 cluster intensity, sum of 5 cycles each) (fold (ratio)); higher = stronger signal-on switching upon ATP binding; sequences stand for … in TCGTCGGCAGCGTCAGATGTGTATAAGAGACAGTTTTTTTTTTTTTTTTTTTTTTTTT…TC
Settings: aptamer strand: ATP DNA aptamer (quencher-CACCTGGGGGAGTATTGCGGAGGAAGG + anchor), 100 nM annealed; ATP concentration: 500 uM; one replicate
In short: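 The fluorescence ratio divides summed target-cycle Cy3 intensity by summed buffer-cycle Cy3 intensity for each cluster and is averaged per switch-domain sequence. Cy3-labelled switching-strand clusters on a modified Illumina MiSeq flow-cell were annealed to 100 nM quencher-labelled ATP aptamer, then imaged in selection buffer and again after 15 min with 500 uM ATP at 22 °C. Five such cycles were run, with NaOH stripping and re-annealing between them, and clusters outside 100-1000 RFU were excluded.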
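Further: ATP exposure 15 min at 22 °C before imaging.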

Row | Sequence | switch fluorescence ratio
1 | GACATGGTA | 1.03
2 | AACCCGGTCC | 1.19
3 | ACCCTCGCTC | 1.46
4 | GATAATCATG | 1.02
5 | GACCATGTT | 0.956
6 | CAGCTGG | 1.06
7 | AAGTGTACGG | 1.03
8 | ACAGGAGCCC | 1.05
9 | AGTTTCGACG | 1.06
10 | TAGTCGAGTC | 0.918
11 | AAAATTCCTT | 1.08
12 | ACGCCGAGCA | 1.08
13 | GAAGTGACAG | 0.997
14 | TCCTGGGGCT | 1.06
15 | ATTAGAAAGG | 0.996
16 | GTTTTCCTCA | 1.65
17 | TGGTCGCCCG | 0.954
18 | TTTCAACTTC | 1.01
19 | CAGGCCGGAA | 1.01
20 | GTCGGCTTCA | 1.03
21 | TCAGTAGGTG | 1.05
22 | GTAGTCTAAT | 0.935
23 | TGGATAGCGG | 0.973

Row | Sequence | switch fluorescence ratio
24 | TTTATCAAT | 1.01
25 | TATACTAAGA | 1.01
26 | GCGTCAACCG | 0.961
27 | ACCAGCTCCG | 1.25
28 | AGGGGCACAG | 0.967
29 | ACATGTTGCA | 1.06
30 | TCTGTTCCCG | 0.975
31 | TTTAGGAGTA | 0.959
32 | AAAGATAGA | 1.03
33 | TAGATGCGC | 1.03
34 | CCAGAGTCGG | 1.1
35 | TGTAGACATC | 0.982
36 | TGGATAGTGG | 0.986
37 | CCATTCAAG | 1.01
38 | GCTATTCTTC | 0.967
39 | TGAATCCCTT | 1.04
40 | CAAAGGATCC | 0.966
41 | AGCCTTTGCT | 0.978
42 | CACCTAGGCC | 1.05
43 | TTGGAACGCA | 1.13
44 | AGGCAGGCA | 1.01
45 | TCCTAGTTTT | 1.01
46 | ATCTGCGCCA | 1.14

Row | Sequence | switch fluorescence ratio
47 | TGTAGGCACT | 1.02
48 | TACTACATGA | 1.07
49 | AATCTGTGTT | 1.01
50 | AAATGTATAG | 1.05
51 | TAGTTCCTTG | 1
52 | ATAATTCCCG | 1
53 | AATCTCTAGG | 1.03
54 | ATGCTGTGGG | 1.05
55 | CCGTCTCAAG | 1.07
56 | TACCGCACTT | 2.79
57 | TCACGTACTG | 1.7
58 | AGTTCGTATT | 0.985
59 | TAAGAGTTTA | 0.985
60 | AATTCCGCCC | 1.57
61 | TTTAGAAAGA | 1.02
62 | CCCTGAGACC | 0.986
63 | ATAGTCTAT | 0.988
64 | TTATTTTGA | 0.979
65 | GTTGGCATT | 0.974
66 | ACGATCGAGT | 1.03
67 | TGGAATCGCC | 1.01
68 | ACGCTGTGGG | 1.02
69 | AAGATTCCTG | 1.03

Row | Sequence | switch fluorescence ratio
70 | ACCTAACCCG | 1.92
71 | GCAATGCCCT | 1.38
72 | TGCCCGGGAA | 1.04
73 | GAATTCTAGC | 0.979
74 | GGGGTCACTG | 0.96
75 | TAGCGAATCC | 1.03
76 | GAGCGCACAT | 1.15
77 | TTAACTATAG | 1
78 | ATGCCCCACC | 1.04
79 | AATCAGGTGG | 1.01
80 | AAAGGACGTT | 1.02
81 | ACTCAAGCGT | 1.15
82 | GTAACGTCAT | 1.06
83 | TTTAAAACT | 0.941
84 | GGCCGTATTC | 0.985
85 | CGCACCCGGC | 1.03
86 | GGGGCAACTG | 1.04
87 | TAGGATGACA | 0.958
88 | GCTACTTCGG | 0.953
89 | CCTTGCTTGA | 1.03
90 | AATGAGTTGA | 0.975
91 | GGTGGCCGCT | 1.04
92 | CCGATGGAAA | 1.1

Row | Sequence | switch fluorescence ratio
93 | ATCTGATTAA | 0.994
94 | ATTCCTCCTT | 1.48
95 | TAAGTTTACG | 1.01
96 | GAGTTGCATC | 1.01
97 | CACTTTACCC | 1.28
98 | AATGGAATGA | 0.957
99 | TGATTGTCGT | 0.98
100 | GCGTGTGTGG | 0.992
101 | ATGACGGGAT | 1.02
102 | GTTTGCAAAA | 0.981
103 | GTAACCGTCG | 1.2
104 | CCAGCCAATT | 1.23
105 | GGTAATGTGG | 0.952
106 | ATTAGGAACC | 1.03
107 | ATAGTATTCG | 0.968
108 | GATAATAA | 1
109 | CGAGGTCCAA | 1.05
110 | CGTCACTGTT | 0.961
111 | AAACGGCGTA | 0.963
112 | GACTCTGGCG | 1.05
113 | GGTAAATTTC | 1.02
114 | AAGATGTTAA | 0.97
115 | AGAGTGGGGA | 1.04

Row | Sequence | switch fluorescence ratio
116 | CTAAGGAGGA | 1.05
117 | ACCGCGTCTA | 1.08
118 | CTGACGGGGT | 1.09
119 | GGATAAGATA | 0.961
120 | ATTTAATAGC | 1.01
121 | AAGTATAGGG | 1.1
122 | TGGTAGCTAT | 1.04
123 | GTCAAGAGGC | 1.11
124 | TAACTCTGTA | 1.05
125 | TCGGGATACC | 1.03
126 | TTCTTGCGGT | 0.969
127 | CATCTGTAAG | 1.1
128 | GGGAAAAAT | 0.923
129 | CCCCAACCAT | 1
130 | AGAAATCAAC | 1.01
131 | CGATATTAAG | 0.937
132 | ATGGGAGAGC | 0.947
133 | AACTCAAGCA | 1.12
134 | ATATTCAGTC | 1.02
135 | AGCAAAGGAC | 1.28
136 | AACGACGGAT | 1.08
137 | TACAGTACAT | 1.29
138 | CCGTACTTGC | 1.69

Row | Sequence | switch fluorescence ratio
139 | TTGTGGACGT | 1
140 | GATAGCAAAA | 0.919
141 | GTTTACGGAG | 1.05
142 | AGACCGAACG | 1.12
143 | GTGTTGTATC | 1.03
144 | TTTTTAATA | 1.03
145 | AAACGATGGA | 0.979
146 | ATACCTGCTG | 1.01
147 | CTATTAATAA | 1.11
148 | GGCCATTTCG | 0.997
149 | AACCTATTTG | 1.04
150 | GGGACTGACG | 1.04
151 | GATCTTCGTA | 0.973
152 | AGAGTAACTT | 0.953
153 | ACGGTTATAG | 1.03
154 | CAAGTATCGT | 0.968
155 | GGCAGATCCC | 1.01
156 | CGTATTCTCG | 1.05
157 | GCCCGCCGAC | 2.04

Source: the supplement of paper PMC10126150
